Measured values: the antibiotic and cytotoxicity screens of Wong et al. (2023)
This is one part of the list.

What was measured:
HSkMC = human skeletal muscle cells; experiment: cytotoxicity call (relative viability < 0.9); conditions: 10 µM
HepG2 = experiment: cytotoxicity call (relative viability < 0.9); conditions: 10 µM
S. aureus RN4220 = experiment: growth inhibition call (relative growth <= 0.2); conditions: 50 µM

C[C@@H]1CN([C@@H](C)CO)S(=O)(=O)c2ccc(-c3cncnc3)cc2O[C@H]1CN(C)C(=O)C1CCCCC1
inactive: cytotoxicity call (HSkMC) | cytotoxicity call (HepG2) | growth inhibition call (S. aureus RN4220)

COc1ccc(S(=O)(=O)N(C)C[C@@H]2OCCCC[C@@H](C)Oc3ccc(NC(=O)Nc4cccc5ccccc45)cc3C(=O)N([C@H](C)CO)C[C@@H]2C)cc1
inactive: cytotoxicity call (HSkMC) | cytotoxicity call (HepG2) | growth inhibition call (S. aureus RN4220)

C[C@@H]1CN([C@@H](C)CO)C(=O)c2cc(NC(=O)Cn3cnnn3)ccc2O[C@H]1CN(C)S(=O)(=O)c1ccc(Cl)cc1
inactive: cytotoxicity call (HSkMC) | cytotoxicity call (HepG2) | growth inhibition call (S. aureus RN4220)

CC(=O)N1[C@@H](CO)[C@@H](c2ccccc2)[C@@H]1CNC(=O)CN1CCOCC1
inactive: cytotoxicity call (HSkMC) | cytotoxicity call (HepG2) | growth inhibition call (S. aureus RN4220)

Cc1ccc(S(=O)(=O)N(C)C[C@H]2OCCCC[C@@H](C)Oc3ccc(NC(=O)Nc4ccc5c(c4)OCO5)cc3C(=O)N([C@@H](C)CO)C[C@H]2C)cc1
inactive: cytotoxicity call (HSkMC) | cytotoxicity call (HepG2) | growth inhibition call (S. aureus RN4220)

C[C@@H]1CN([C@H](C)CO)C(=O)c2cccc(NC(=O)Nc3ccc(C(F)(F)F)cc3)c2O[C@H]1CN(C)C(=O)Nc1ccc(F)cc1
inactive: cytotoxicity call (HSkMC) | cytotoxicity call (HepG2) | growth inhibition call (S. aureus RN4220)

Cc1noc(C)c1NC(=O)Nc1cccc2c1O[C@H](CN(C)Cc1ccc(Oc3ccccc3)cc1)[C@@H](C)CN([C@@H](C)CO)C2=O
inactive: cytotoxicity call (HSkMC) | cytotoxicity call (HepG2) | growth inhibition call (S. aureus RN4220)

CC(C)NC(=O)Nc1ccc2c(c1)C(=O)N([C@@H](C)CO)C[C@H](C)[C@@H](CN(C)Cc1ccccc1)OCCCC[C@@H](C)O2
inactive: cytotoxicity call (HSkMC) | cytotoxicity call (HepG2) | growth inhibition call (S. aureus RN4220)

COc1ccc(NC(=O)N(C)C[C@@H]2Oc3ccc(NC(=O)C4CC4)cc3CC(=O)N([C@H](C)CO)C[C@H]2C)cc1
inactive: cytotoxicity call (HSkMC) | cytotoxicity call (HepG2) | growth inhibition call (S. aureus RN4220)
